# Laboratory results from patent US20220125947A1.
# Changes are numbered by the printed parent chain.
# B1: VG9B411 (antibody, human IgG1, kappa)
# heavy: EVQLVESGGGLVKPGGSLRLSCSASGFTFSNYDMNWVRQAPGKGLEWVSSISSSSSYIYYADSVKGRFTISRDNAKNSLYLQMNSLRAEDTAVYHCARDVGVTTDYYYYGMDVWGQGTTVTVSS[human IgG1 constant region omitted here]
# light: EIVMTQSPSSVSASVGDRVTITCRASQGINSWLAWYQQDPYKAPKLLIYAASTLQSGVPSRFGGRGSGTEFTLTISSLQPEDFAVYYCQQYNNWPRTFGQGTKVDIKRTVAAPSVFIFPPSDEQLKSGTASVVCLLNNFYPREAKVQWKVDNALQSGNSQESVTEQDSKDSTYSLSSTLTLSKADYEKHKVYACEVTHQGLSSPVTKSFNRGEC
# B2: VG9B58 (antibody, human IgG1, kappa)
# heavy: QVQLQESGPGLVKPSETLSLTCTVSGGSIKSSYWTWIRQPPGKGLEWIGYMFYLGSTNYNPSLKSRVTMSIDTSRNQFSLKLSSVTAADTAVYYCSRERPVLDAFDIWGQGTMVTVSS[human IgG1 constant region omitted here]
# light: DIQMTQSPSAMSASVGDRVTITCRASQDITNYLAWFQQKPGKVPKRLIYAASSLQGGVPSRFSGSGSGTEFTLTISSLQPEDFSTYYCLQHDTYPYTFGQGTKVDIKRTVAAPSVFIFPPSDEQLKSGTASVVCLLNNFYPREAKVQWKVDNALQSGNSQESVTEQDSKDSTYSLSSTLTLSKADYEKHKVYACEVTHQGLSSPVTKSFNRGEC
# B3: VG9B417 (antibody, human IgG1, kappa)
# heavy: EVQLVESGGGLVKPGGSLRLSCAASGFTFSNYGMNWVRQAPGKGLEWVSYISSGSSYKYYADSMKGRFTISRDNAMNLLYLQMNSLRPEDSAMYYCARDPVVTEYYYYGMDVWGQGTTVTVSS[human IgG1 constant region omitted here]
# light: DIVMTQSPSSVSASVGDRVTITCRASQGINSWLAWYQQKPGNAPKLLIYAASSLQSGVPSRFSGIGSGTDFIFTISSLQPEDFASYYCQQANSFPWTFGQGTKVEIKRTVAAPSVFIFPPSDEQLKSGTASVVCLLNNFYPREAKVQWKVDNALQSGNSQESVTEQDSKDSTYSLSSTLTLSKADYEKHKVYACEVTHQGLSSPVTKSFNRGEC
# B4: VG9B68 (antibody, human IgG1, kappa)
# heavy: EVQLVESGAEVKKPGSSVKVSCKASGGTFSTYAISWVRQAPGQGLEWMGGIIPIFGTATYAQRFQDRVMITADKSTTTAYMELSSLRSEDTAVFYCARGVGWGSDYYYGLDVWGQGTMVTVSS[human IgG1 constant region omitted here]
# light: EIVMTQSPLSSPVTLGQPASISCRSSQSLVHSDGNTYLSWLQQRPGQSPRLLIYKISNRFSGVPDRFSGSGAGTDFTLRITRVEPEDVGVYYCIQATHHPLTFGGGTRLEIKRTVAAPSVFIFPPSDEQLKSGTASVVCLLNNFYPREAKVQWKVDNALQSGNSQESVTEQDSKDSTYSLSSTLTLSKADYEKHKVYACEVTHQGLSSPVTKSFNRGEC
# B5: VG9B454 (antibody, human IgG1, lambda)
# heavy: QVQLQESGPGLVKPSETLSLTCTVSGGSISNYYWSWIRQPAGKGLGWIGRIYSSGITNYNPSLKSRVTMSVDTSKNQLSLKLSSVTAADTAVYYCAGIVGVKGAFAIWGQGTMVTVSS[human IgG1 constant region omitted here]
# light: QAVLTQPASVSGSPGQSITISCTGTSSDVGGYNYVSWYQQHPGKAPKLMIYEVSNRPSGVSNRFSGSKSGNTASLTISGLQAEDEADYYCSSYTSTSVVFGGGTKLTVLGQPKAAPSVTLFPPSSEELQANKATLVCLISDFYPGAVTVAWKADSSPVKAGVETTTPSKQSNNKYAASSYLSLTPEQWKSHRSYSCQVTHEGSTVEKTVAPTECS
# B6: VG9B459 (antibody, human IgG1, lambda)
# heavy: B5 heavy
# light: B5 light with A2P
# B7: VG9B443 (antibody, human IgG1, lambda)
# heavy: B5 heavy
# light: B5 light with A2S, V3A
# B8: VG9B455 (antibody, human IgG1, lambda)
# heavy: B5 heavy with Q5V
# light: B5 light with Q1S, A2Y, V3E
# B9: VG9B453 (antibody, human IgG1, lambda)
# heavy: B5 heavy with E6Q
# light: B5 light with A2S, V3A, L106V
# B10: VG9B449 (antibody, human IgG1, lambda)
# heavy: B5 heavy
# light: B5 light with L106V
# B11: VG9B439 (antibody, human IgG1, lambda)
# heavy: B5 heavy with E6Q
# light: B5 light with A2S, V3A
# B12: VG9B163 (antibody, human IgG1, lambda)
# heavy: QVQLVQSGGGLVKPGASLKLSCAASGFTFSNHGMSWVRQTSDKRLEWVASITRGGDTTYYPDNVKGRFTISRENAKNTLYLQMSSLKSDDTALYYCTRGPLTVGYAMDYWGQGTTVTVSS[human IgG1 constant region omitted here]
# light: QLVLTQPPSVSAAPGQKVTISCSGNSSNIGHNYVSWYQQLPGTAPKLLIYDNNQRPSGIPDRFSGSKSDTSATLGITGLQTGDEADYYCGIWDSSLSIVVFGGGTKVTVLGQPKAAPSVTLFPPSSEELQANKATLVCLISDFYPGAVTVAWKADSSPVKAGVETTTPSKQSNNKYAASSYLSLTPEQWKSHRSYSCQVTHEGSTVEKTVAPTECS
# B13: VG9B157 (antibody, human IgG1, lambda)
# heavy: B12 heavy with Q1E, V5L, Q6E
# light: SSELTQDPAVSVALGQTVRITCQGDSLRSYYATWYQQKPGQAPILVIYGENNRPSGIPDRFSGSRSGNTASLTITGAQAEDEADYYCNSRDTGDHHLVFGGGTKLTVLGQPKAAPSVTLFPPSSEELQANKATLVCLISDFYPGAVTVAWKADSSPVKAGVETTTPSKQSNNKYAASSYLSLTPEQWKSHRSYSCQVTHEGSTVEKTVAPTECS
# Biological target: T cell receptor (TCR) Vγ9 (TRGV9) (human), Q99603
# Assay: cell-based or functional assay
# T cell receptor (TCR) Vγ9 (TRGV9) (human), Q99603, sequence (Q99603 21-122): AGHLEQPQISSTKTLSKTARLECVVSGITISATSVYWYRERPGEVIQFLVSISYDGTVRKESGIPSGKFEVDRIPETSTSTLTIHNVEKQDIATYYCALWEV
CD25+ (Vg9+ cells),CD71+ (Vg9+ cells),"Granzyme B (Luminex, supernatant)","IFNγ (Luminex, supernatant)","IL6 (Luminex, supernatant)","TNFα (Luminex, supernatant)",Vg9 T cell %,Binder
10.8%,75.4%,115,51,88,25,3%,B1

# Biological target: T cell receptor (TCR) Vγ9 (TRGV9) on Vγ9+ T cells in PBMCs (human), Q99603
# Assay: cell-based or functional assay
# T cell receptor (TCR) Vγ9 (TRGV9) on Vγ9+ T cells in PBMCs (human), Q99603, sequence (Q99603 21-122): as above
"CD25+ (Vg9+ cells), flow staining","CD71+ (Vg9+ cells), flow staining","Granzyme B (Luminex, supernatant)","IFNγ (Luminex, supernatant)","IL6 (Luminex, supernatant)","TNFα (Luminex, supernatant)","Vg9 T cell %, flow staining",Binder
33.9%,91.8%,3840,1600,572,3450,6.8%,B2
49.6%,98.8%,5570,2870,1410,202,10.9%,B3

# Biological target: TCR Vδ2 (TRDV2) on T cells in PBMCs (human), A0JD36
# Assay: cell-based or functional assay
# TCR Vδ2 (TRDV2) on T cells in PBMCs (human), A0JD36, sequence (A0JD36 20-115, stated change not applied): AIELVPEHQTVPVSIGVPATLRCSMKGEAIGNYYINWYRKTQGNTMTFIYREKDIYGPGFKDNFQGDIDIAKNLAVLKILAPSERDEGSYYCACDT
Flow Staining: CD25+ (Vg9+ cells),Flow Staining: CD71+ (Vg9+ cells),Flow Staining: Vg9 T cell %,Luninex (supernatant): Granzyme B,Luninex (supernatant): IFNγ,Luninex (supernatant): IL6,Luninex (supernatant): TNFα,Binder
35.6%,93.5%,9.3%,4200,1540,539,6830,B4
39.9%,92.7%,5%,2480,1220,458,2060,B5
24.2%,86.6%,2.9%,2320,1060,409,1590,B6
33.6%,86%,3.8%,2550,1170,860,5110,B7
24.2%,77.3%,2.6%,9280,2730,1580,7050,B8
29.7%,87.9%,3%,3300,1670,612,5760,B9
16.3%,87.2%,3.5%,1090,256,131,266,B10
13.8%,86%,3.9%,760,167,140,190,B11
9.7%,75.9%,3.7%,41,,5,9,B12
13.1%,78.3%,3.3%,115,36,606,74,B13
